The campaign covered roughly 280,000 compounds. About 820 (0.29%) were called active. This list was built around the results that the source calls inconclusive (neither active nor inactive); the mix of calls is not that of the screen. The call rests on the fitted dose curve; in most records, active means well fitted curve in either direction with a large enough effect; inconclusive means small, poorly fitted or top-dose-only effect; inactive means flat fitted curve, though single readings scatter. Potencies of inconclusive entries are left out as doubtful fits.
assay: Total Fluorescence Counterscreen for Inhibitors of the Interaction of Thyroid Hormone Receptor and Steroid Receptor Coregulator 2; details: TRb/SRC2 Texas Red total fluorescence interference; series mostly up to 106 µM
How it was run: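 Human TRb ligand-binding domain at 0.6 uM with 20 nM Texas Red SRC2 peptide in Tris buffer containing 1 uM T3 and 5% DMSO, incubated with compound 5 h at ambient temperature. Total fluorescence (555/632 nm) calculated as parallel + 2 × perpendicular.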
Potency means the concentration at half of the fitted maximal effect; tags describe the fitted curve by direction and shape or compound fluorescence and quenching.

**Q.** For `O=C(O)c1ccc(COc2ccccc2/C=C2/NC(=O)N(c3cccc(Cl)c3)C2=O)cc1`, which Potency is on record?
**A.** The Potency was “inactive”.

**Q.** For `CNS(=O)(=O)c1cc(-c2nnc(Nc3cc(C)ccc3C)c3ccccc23)ccc1C`, which Potency is on record?
**A.** The Potency was inconclusive [quencher, full curve].

**Q.** For `CCc1ccc(C(=O)NC(Cc2c[nH]c3ccccc23)C(=O)OCC(=O)c2ccc(Br)cc2)cc1` (stereo unspecified), which Potency is on record?
**A.** Its Potency is inconclusive [falling, full curve, poor fit].

**Q.** For `CC(=O)c1cccc(NC(=O)C(C)n2c(=O)cc(-c3ccccc3)c3c(C)nn(C)c32)c1` (stereo unspecified), which Potency is on record?
**A.** Its Potency is inconclusive [falling, full curve, poor fit].

**Q.** With `COc1cccc(C(=O)CN2CCN(S(=O)(=O)c3cccc([N+](=O)[O-])c3)CC2)c1` as the compound, how does the Potency read?
**A.** Its Potency is inconclusive [falling, partial curve, poor fit].

**Q.** For `C=CC1=C(C)C2=Cc3c(C=C)c(C)c4[n]3[Sn+2][n]3c(c(C)c(CCC(=O)O)c3=CC3=NC(=C4)C(C)=C3CCC(=O)O)=CC1=N2`, which Potency is on record?
**A.** The Potency was inconclusive [rising, partial curve, poor fit].

**Q.** Which Potency does the source give for `CCOC(=O)c1c(NC(=O)c2cc(CC(C)C)on2)sc(C(C)=O)c1C` here?
**A.** The Potency was inconclusive [falling, full curve, poor fit].

**Q.** Which Potency does the source give for `O=C(O)c1ccc2nc(-c3ccccc3)c(-c3ccccc3)nc2c1` here?
**A.** Its Potency is “inactive”.

**Q.** Which Potency does the source give for `CCN(CC)c1ccc(C=C2C(=O)OC3(CCCC3)OC2=O)cc1` here?
**A.** The Potency was “inactive”.

**Q.** With `CCOCCCn1c(=N)c(C(=O)NCc2cccnc2)cc2c(=O)n3cc(C)ccc3nc21` as the compound, how does the Potency read?
**A.** The Potency was “inactive”.

**Q.** For `COCCNc1oc(-c2ccc(COc3ccc(OC)cc3)o2)nc1C#N`, which Potency is on record?
**A.** Its Potency is inconclusive [falling, partial curve, poor fit].

**Q.** With `Cc1ccc(S(=O)(=O)CCC(=O)Nc2ccc(Br)cc2C)cc1` as the compound, how does the Potency read?
**A.** The Potency was “inactive”.

**Q.** Which Potency does the source give for `COc1ccc(-c2c(O)c3cc(O)cc(O)c3oc2=O)cc1` here?
**A.** Its Potency is “inactive”.

**Q.** With `CCn1c2ccc(C)cc2c2nc3cc(C(=O)O)ccc3nc21` as the compound, how does the Potency read?
**A.** The Potency was inconclusive [quencher, partial curve].

**Q.** For `COc1cccc(-c2csc(-c3c(N)c(C(=O)c4ccccc4)n4ccccc34)n2)c1`, which Potency is on record?
**A.** Its Potency is “inactive”.

**Q.** With `Nc1ccc2nc(-c3ccc(O)cc3)sc2c1` as the compound, how does the Potency read?
**A.** Its Potency is active: 79.4 µM [quencher].

**Q.** With `COc1cccc(C(=O)NCC(=O)OCc2cc(=O)n3ccsc3n2)c1` as the compound, how does the Potency read?
**A.** Its Potency is inconclusive [quencher, full curve].

**Q.** Which Potency does the source give for `CCCCOc1cccc(NC(=O)c2cccc(C(=O)Nc3cccc(OCCCC)c3)c2)c1` here?
**A.** Its Potency is inconclusive [quencher, full curve].

**Q.** With `O=C(c1cccc(Cl)c1)n1nc(-c2cccnc2)nc1NCc1ccccc1` as the compound, how does the Potency read?
**A.** The Potency was inconclusive [quencher, full curve].

**Q.** Which Potency does the source give for `CC(C)(C)c1[nH]nc2c1C(c1ccsc1)C(C#N)=C(N)O2` (stereo unspecified) here?
**A.** The Potency was inconclusive [rising, single point].

**Q.** With `Cc1ccc(S(=O)(=O)N(C)C)cc1NC(=O)C1CCCC1` as the compound, how does the Potency read?
**A.** The Potency was inconclusive [falling, partial curve, poor fit].

**Q.** With `O=c1c(S(=O)(=O)c2cccc(Cl)c2)cn(Cc2ccccc2)c2cc(N3CCCCC3)c(F)cc12` as the compound, how does the Potency read?
**A.** The Potency was inconclusive [quencher, full curve].

**Q.** Which Potency does the source give for `CNC(=O)c1c(NC(=O)Cc2coc3ccc(C)cc23)sc2c1CCCC2` here?
**A.** The Potency was inconclusive [falling, partial curve, poor fit].

**Q.** Which Potency does the source give for `CC1=Nc2ccccc2/C1=C\c1nc(-c2ccccc2)oc1O` here?
**A.** Its Potency is “inactive”.

**Q.** With `COC(=O)C(Cc1c[nH]c2ccccc12)NC(=O)c1cc(-c2ccc(OC)c(OC)c2)oc1C` (stereo unspecified) as the compound, how does the Potency read?
**A.** Its Potency is inconclusive [falling, partial curve, poor fit].

**Q.** With `CC(=O)c1cc(-c2ccc(F)cc2)n(CCC(=O)NCc2ccc(C)cc2)c1C` as the compound, how does the Potency read?
**A.** Its Potency is “inactive”.

**Q.** Which Potency does the source give for `CCOC(=O)c1c(NC(=O)/C=C/c2ccc(OC)cc2)sc2c1CCC(C)C2` (stereo unspecified) here?
**A.** Its Potency is inconclusive [falling, partial curve, poor fit].

**Q.** Which Potency does the source give for `Cc1cc2oc(C(=O)Nc3ccc(S(=O)(=O)Nc4onc(C)c4C)cc3)cc(=O)c2cc1C` here?
**A.** The Potency was inconclusive [quencher, full curve].

**Q.** Which Potency does the source give for `COc1ccc(/C=C2\CCCc3c2nc2ccccc2c3C(=O)O)cc1OC` here?
**A.** Its Potency is “inactive”.

**Q.** For `Cc1ccc2c(=O)cc(C(=O)Nc3ccc(S(=O)(=O)Nc4onc(C)c4C)cc3)oc2c1`, which Potency is on record?
**A.** Its Potency is inconclusive [falling, full curve, poor fit].

**Q.** With `COC(=O)C1=C(C)N(Cc2ccccc2)C2=C3C(=O)CCCC3[C@@](O)(C(=O)OC)C(=O)N2C1c1ccccc1` (stereo partly specified) as the compound, how does the Potency read?
**A.** Its Potency is inconclusive [quencher, full curve].

**Q.** For `CSc1cccc(N2C(=O)N(CC(=O)NCc3ccccc3Cl)c3ccccc3S2(=O)=O)c1`, which Potency is on record?
**A.** The Potency was inconclusive [falling, partial curve, poor fit].

**Q.** With `Cc1ccc(NC(=O)C(Cc2ccccc2)n2cccc2)c(C)c1` (stereo unspecified) as the compound, how does the Potency read?
**A.** Its Potency is inconclusive [quencher, full curve].

**Q.** Which Potency does the source give for `CCN(CC)S(=O)(=O)c1cccc(C(=O)Nc2ccc(Cl)cn2)c1` here?
**A.** Its Potency is “inactive”.

**Q.** Which Potency does the source give for `COc1cccc(N2CCN(C(=O)Cn3cnc4onc(-c5ccc(F)cc5)c4c3=O)CC2)c1` here?
**A.** Its Potency is inconclusive [falling, partial curve, poor fit].

**Q.** With `Cn1cc(S(=O)(=O)N2CCCC2)cc1C(=O)Nc1ccc(C(F)(F)F)cc1` as the compound, how does the Potency read?
**A.** The Potency was active: 44.7 µM [quencher].

**Q.** Which Potency does the source give for `Cc1cc2cc(CNC(=O)Nc3cccc(Cl)c3)ccc2n1C` here?
**A.** The Potency was active: 44.7 µM [fluorescent].

**Q.** For `Cc1cccc(Cn2c(SCc3ccc(C(=O)NCCc4ccccc4)cc3)nc3cccnc32)c1`, which Potency is on record?
**A.** The Potency was inconclusive [quencher, full curve].

**Q.** With `Cc1ccc(C)c(NC(=O)C(c2ccccc2)N2Cc3ccccc3C2=O)c1` (stereo unspecified) as the compound, how does the Potency read?
**A.** The Potency was active: 100 µM [quencher].

**Q.** With `CCN(CCN(C)C)C(=O)C1CCN(S(=O)(=O)c2c(C)noc2/C=C/c2ccccc2F)CC1` as the compound, how does the Potency read?
**A.** The Potency was inconclusive [quencher, full curve].

**Q.** With `COc1ccccc1Nc1ccc(N)cc1` as the compound, how does the Potency read?
**A.** Its Potency is “inactive”.
